In PubChem BioAssay AID894 (National Center for Advancing Translational Sciences (NCATS), 2007):
Values joined by “and” are separate entries in the source; they are usually repeats but may differ in a detail not shown here. Identical values can stand only once. Screen size: about 150,000 compounds; about 6,500 (4.3%) were called active. Inconclusive means that the source gave no clear call. Such entries were picked first, then a sample of the others. The call rests on the fitted dose curve; in most records, active means well fitted inhibition curve with a large enough effect (not every such curve was filed as active); inconclusive means small, poorly fitted or top-dose-only effect, or another doubt; inactive means no such curve, though single readings can be large or run the other way. Potencies beside an inconclusive call are fits to weak or partial responses and may not hold up.

Molecular target: 15-hydroxyprostaglandin dehydrogenase [NAD(+)] (Homo sapiens) (UniProt P15428)
Assay: qHTS Assay for Inhibitors of HPGD (15-Hydroxyprostaglandin Dehydrogenase)
Conditions: purified HPGD, NADH fluorescence kinetic, PGE2 substrate; activity change, negative = inhibition: stronger effect = lower value
In short: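 20 nM HPGD preincubated 15 min at room temperature with compound in 50 mM Tris-HCl pH 8, 0.01% Tween 20. Started with 1 mM NAD+ and 30 uM prostaglandin E2; NADH fluorescence (360/450 nm) read 5 times over 30-s intervals, last minus first.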
On the % scale 0 is the no-effect control and ±100 the full control effect; potency means the concentration at half of the fitted maximal effect; tags describe the fitted curve by direction and shape.

UniProt P15428, sequence (P15428 whole entry, looked up): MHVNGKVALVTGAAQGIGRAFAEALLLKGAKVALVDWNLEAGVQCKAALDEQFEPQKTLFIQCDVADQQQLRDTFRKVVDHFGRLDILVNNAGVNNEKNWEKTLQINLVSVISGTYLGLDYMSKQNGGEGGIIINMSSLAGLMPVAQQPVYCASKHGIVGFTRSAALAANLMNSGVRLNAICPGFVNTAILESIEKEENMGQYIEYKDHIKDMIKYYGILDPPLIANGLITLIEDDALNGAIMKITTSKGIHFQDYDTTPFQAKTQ

Structure (SMILES)	Potency	activity change, negative = inhibition
O=C(CSc1n[nH]c(-c2cccs2)n1)N1CCN(S(=O)(=O)c2ccccc2)CC1	inconclusive: 28.2 µM [inhibitor, partial curve]	
Cc1ccc(S(=O)(=O)c2nnn3c2nc(Nc2cccc(C)c2)c2ccccc23)cc1	inconclusive: 31.6 µM [inhibitor, partial curve]	
CCc1nc(-c2cc3ccc(C)cc3[nH]c2=O)no1	inconclusive: 22.4 µM [inhibitor, partial curve]	
CNc1oc(-c2ccccc2Cl)nc1P(=O)(c1ccccc1)c1ccccc1		inactive: -16.3%
O=C(CO/N=C/c1ccc2c(c1)OCO2)Nc1cccc(Br)c1	inconclusive: 35.5 µM [inhibitor, partial curve]	
CN(C)c1ccc(NC(=O)CSc2nc(N)c(C(=O)Nc3ccc(N(C)C)cc3)s2)cc1		inactive: -9.18%
Cc1ccc2c(c1)-c1cc(C)nn1C(c1sccc1C)N2 (configuration not stated)	inconclusive: 31.6 µM [inhibitor, partial curve]	
Cc1ccc(/C=C2/NC(=O)N(Cc3ccc(Br)cc3)C2=O)o1	inconclusive: 28.2 µM [inhibitor, single point]	
O=S1(=O)C=C(Oc2ccc(F)cc2)c2ccccc21		inactive: -15.4%
CCOC(=O)CSc1ncnc2c1nnn2-c1ccc(F)cc1	inconclusive: 28.2 µM [inhibitor, single point]	
O=C(/C=C/c1ccc(O)cc1)c1cccs1	inconclusive: 14.1 µM [inhibitor, full curve]	
Cn1c(=O)nc2n(Cc3ccccc3)c3cccc(Cl)c3cc-2c1=O	inconclusive: 31.6 µM [inhibitor, partial curve]	
COc1ccc(Cc2nnc(-c3cccc(C)c3)o2)cc1OC	active: 17.8 µM	
O=C(NCc1cccnc1)/C(=C/c1ccc(-c2cccc(C(F)(F)F)c2)o1)NC(=O)c1ccccc1	inconclusive: 31.6 µM [inhibitor, single point]	
CCOC(=O)NC1(Nc2ccc(C)cc2)Oc2ccccc2O1	inconclusive: 35.5 µM [inhibitor, single point]	
O=C(COc1ccccc1Cl)NC(=S)Nc1ccc(CN2CCOCC2)cc1	active: 25.1 µM	
CC(=O)c1ccc(Oc2ccc(C(C)=O)cc2)cc1	inconclusive: 39.8 µM [inhibitor, single point]	
CCOC(=O)CNC(=O)Nc1nnc(-c2ccc(OCC)cc2)o1	inconclusive: 31.6 µM [inhibitor, partial curve]	
Cc1ccc(S(=O)(=O)Nc2ccccc2-c2ccccc2NS(=O)(=O)c2ccc(C)cc2)cc1		inactive: -15%
CCOC(=O)C1=CN(c2cccc(F)c2)C=C(C(=O)OCC)C1c1cc(OC)c(O)c([N+](=O)[O-])c1	inconclusive: 20 µM [inhibitor, partial curve, poor fit]	
Nc1cccnc1Sc1ccc(Cl)cc1	inconclusive: 31.6 µM [inhibitor, partial curve]	
NC(=O)c1c(NC(=O)C2CCCO2)sc2c1CCCC2 (configuration not stated)	active: 8.91 µM	
O=C(CNC(=O)c1cccc(F)c1)N/N=C/c1cc(Br)ccc1OC(=O)/C=C/c1ccco1		inactive: -15.6%
O=C(Nc1nc(-c2ccccc2)c(-c2ccccc2)o1)c1ccc(F)cc1	inconclusive: 39.8 µM [inhibitor, single point]	

Structure (SMILES)	Potency	activity change, negative = inhibition
C1=C(CCNc2ncnc3c2cnn3-c2ccccc2)CCCC1	inconclusive: 28.2 µM [inhibitor, single point]	
Cc1ccc2[nH]c(-c3ccc(F)cc3F)cc(=O)c2c1	inconclusive: 35.5 µM [inhibitor, partial curve]	
COc1ccc(OC)c(/C=N/NC(=O)c2cc3c(OC)c(OC)ccc3[nH]2)c1		inactive: -17.3%
CCCCn1c(SCc2ccc(Cl)cc2)nc2c1c(=O)[nH]c(=O)n2C	inconclusive: 15.8 µM [inhibitor, partial curve]	
COc1ccc(OC)c(/C=N/NC(=O)Cc2nc3ccccc3[nH]2)c1	inconclusive: 28.2 µM [inhibitor, partial curve]	
COc1cccc(-c2nc(NCc3ccco3)c3ccccc3n2)c1O	inconclusive: 28.2 µM [inhibitor, single point]	
Nc1nncn1C(=O)CCCOc1ccc(Cl)cc1Cl	inconclusive: 14.1 µM [inhibitor, partial curve]	
CC(=O)Oc1ccc(NC(=O)CCC2CCCCC2)c(C(=O)O)c1	inconclusive: 8.91 µM [inhibitor, single point]	
c1ccc2[nH]c(-c3ccnc4ccccc34)nc2c1	inconclusive: 11.2 µM [inhibitor, partial curve] and inconclusive: 28.2 µM [inhibitor, partial curve]	
Cc1ccccc1OCCN1C(=O)c2ccccc2C1=O	active: 28.2 µM	
COc1ccc(S(=O)(=O)NCCSCc2ccccc2C)cc1Br	active: 28.2 µM	
COC(=O)c1ccc(C(=O)OC)c(NC(=O)CN(c2ccc3c(c2)OCO3)S(C)(=O)=O)c1	inconclusive: 25.1 µM [inhibitor, single point]	
CCSc1nc2c(c(=O)[nH]1)C(c1ccccn1)C1=C(CC(C)(C)CC1=O)N2 (configuration not stated)	inconclusive: 31.6 µM [inhibitor, partial curve]	
O=C1NC(=NCc2ccccc2)S/C1=C/c1ccc(O)cc1	active: 2.82 µM	
Cn1nnc2c(NCc3ccco3)nccc21	inconclusive: 28.2 µM [inhibitor, partial curve]	
Nc1ccc(Cl)cc1/C(=N/O)c1ccccc1		inactive: -8.53%
CCc1cccc(C)c1NC(=O)c1cccc(N(C)C)c1	active: 14.1 µM	
O=C(Nc1ccc2nc(-c3ccccn3)[nH]c2c1)C1CCCCC1	inconclusive: 12.6 µM [inhibitor, partial curve]	
Cc1cccc(NC(=O)CCSc2nncn2C)c1		inactive: -1.36%
c1ccc(CSc2nnc(-c3cccs3)o2)cc1	active: 20 µM	
O=C(Nc1nnc(-c2ccco2)o1)C1CCCCC1	inconclusive: 39.8 µM [inhibitor, partial curve]	
Cc1nn(-c2ccccc2)c(C)c1/C=N/NC(=O)c1cc(-c2cccs2)[nH]n1		inactive: -14.1%
COc1cccc(-n2nc(C(C)=O)c(C#N)c2-c2ccco2)c1		inactive: -0.653%
Cc1ccc(S(=O)(=O)NC(C(=O)Oc2ccc3c(C(F)(F)F)cc(=O)oc3c2)c2ccccc2)cc1 (configuration not stated)	inconclusive: 20 µM [inhibitor, partial curve]	

Structure (SMILES)	Potency	activity change, negative = inhibition
O=C(O)C(=O)/C(=C\c1cccc2ccccc12)c1ccc2ccccc2n1	inconclusive: 15.8 µM [inhibitor, partial curve]	
CC1=C(C(=O)Nc2ccccc2)C(c2ccncc2)C(C#N)=C(SCC(=O)NC(C)C)N1 (configuration not stated)		inactive: -17.6%
O=C(/C=C/N1CCOCC1)c1coc2ccccc12	inconclusive: 22.4 µM [inhibitor, partial curve, poor fit]	
Cc1cc(=O)oc2cc(OCC(O)CN3CCc4ccccc4C3)ccc12 (configuration not stated)	inconclusive: 28.2 µM [inhibitor, partial curve]	
CC1(C)CC(=O)C2=C(C1)Nc1cc3c(cc1C2c1ccc(F)cc1)OCO3 (configuration not stated)	inconclusive: 31.6 µM [inhibitor, partial curve]	
O=C(CSc1nc2ccccc2s1)N1CCCCC1	active: 2.82 µM	
C=CCn1cnc2c(c1=O)c1nc3ccccc3nc1n2/N=C/c1ccccn1	inconclusive: 31.6 µM [inhibitor, partial curve]	
CCCC/S(CC1CC1(Cl)Cl)=N\S(=O)(=O)c1ccc(C)cc1 (configuration not stated)		inactive: -6.03%
Cc1ccc(/C=C/C2=NN(Cc3ccccc3Cl)C(=O)CC2)cc1	inconclusive: 35.5 µM [inhibitor, single point]	
CC(=O)NS(=O)(=O)c1ccc(NC(=O)COc2ccc(C(=O)c3ccccc3)cc2)cc1	active: 25.1 µM	
O=C(CC1NCCNC1=O)OCCCc1ccccc1 (configuration not stated)		inactive: -4.59%
COc1ccc(CNc2nc(-c3ccc(C(=O)N(C)C)cc3)nc3ccccc23)c(OC)c1	inconclusive: 31.6 µM [inhibitor, partial curve]	
Cc1[nH]c2ccccc2c1N=Nc1ccccc1C(=O)O	active: 14.1 µM	
COC(=O)Cc1ccc(NC(=S)NCc2ccccc2)cc1	active: 20 µM	
O=C(c1nn(-c2ccccc2)c(=O)c2ccccc12)N1CCN(c2ccccn2)CC1		inactive: -3.75%
COc1cccc(C=Nc2ccccc2C(=O)Nc2nccs2)c1OC	inconclusive: 25.1 µM [inhibitor, partial curve]	
OC[C@H](S)CS		inactive: -9.97%
CC(=O)Nc1ccc(NC(=O)c2c(C)nc3ccccn23)cc1		inactive: -17.9%
O=C(O)c1ccc(CSc2nc3ccccc3o2)cc1	active: 28.2 µM	
CCOc1ccc(CNC(=O)c2cc3oc4ccccc4c3n2C)cc1	inconclusive: 15.8 µM [inhibitor, partial curve]	
O=C(Cc1cccs1)Nc1nnc(-c2ccncc2)s1	inconclusive: 28.2 µM [inhibitor, partial curve]	
CC(C)CNC(=O)CSc1ccc(Cl)cc1	active: 15.8 µM	
Cc1oc2c(CN3CCCC3)c(O)ccc2c(=O)c1-c1ccc(Cl)cc1	inconclusive: 31.6 µM [inhibitor, partial curve]	
CC1=NNC(=O)C1C(c1ccccc1)C(C#N)C#N (configuration not stated)	inconclusive: 11.2 µM [inhibitor, partial curve, poor fit]	
